# According to PubChem BioAssay AID1159614 (National Center for Advancing Translational Sciences (NCATS), 2016):
# The campaign covered roughly 45,000 compounds. About 65 (0.1%) were called active. The call rests on the fitted dose curve; in most records, active means well fitted activation curve with a large enough effect; inconclusive means small, poorly fitted or top-dose-only effect; inactive means no such curve, though single readings can be large or run the other way. The list shows a part of the results.
# Molecular target: Galactocerebrosidase (Homo sapiens) (UniProt P54803)
# Sequence of UniProt P54803 (P54803 whole entry, looked up): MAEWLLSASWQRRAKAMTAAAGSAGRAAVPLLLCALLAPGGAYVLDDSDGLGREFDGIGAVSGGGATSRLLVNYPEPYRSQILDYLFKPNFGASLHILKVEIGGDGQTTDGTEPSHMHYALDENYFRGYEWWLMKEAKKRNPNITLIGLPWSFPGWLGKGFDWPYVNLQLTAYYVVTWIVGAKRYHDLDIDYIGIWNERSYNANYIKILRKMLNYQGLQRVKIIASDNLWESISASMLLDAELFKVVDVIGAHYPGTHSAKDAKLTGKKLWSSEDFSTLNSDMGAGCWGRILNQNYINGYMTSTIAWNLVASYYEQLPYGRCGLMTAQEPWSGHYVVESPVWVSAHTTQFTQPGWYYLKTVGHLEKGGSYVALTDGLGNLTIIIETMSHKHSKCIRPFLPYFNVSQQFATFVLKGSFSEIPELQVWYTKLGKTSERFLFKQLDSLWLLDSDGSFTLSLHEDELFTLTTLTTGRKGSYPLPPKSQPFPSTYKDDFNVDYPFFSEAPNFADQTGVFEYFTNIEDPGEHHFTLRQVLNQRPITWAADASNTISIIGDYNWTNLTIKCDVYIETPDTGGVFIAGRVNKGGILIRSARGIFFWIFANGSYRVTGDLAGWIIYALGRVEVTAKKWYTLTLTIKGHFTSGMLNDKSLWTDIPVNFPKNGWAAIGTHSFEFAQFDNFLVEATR
# Experiment: A Novel Cell-Based Assay to Identify Small Molecules for B -Galactocerebrosidase; further: 0% is about no effect; nearly all actives have a fitted effect of over 65% in size
# Conditions: 145M-Twi-hGALC-G270D cells, HMU-beta-Gal fluorescence, 48 h; series mostly up to 57.5 µM; activation: at the top concentration
# Procedure, shortened: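 qHTS, 1536-well; 145M-Twi-hGALC-G270D cells (WT line also made) in DMEM/F12 + 10% FBS; compound incubation on live cells; HMU-β-gal 0.1 mM final, pH 5.2, NaTC; carbonate stop; fluorescence increase = enhanced residual activity.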
row,SMILES,activation
1,COc1ccc(S(=O)(=O)c2cnc3ccc(Cl)cc3c2N2CCCCC2C)cc1 (centres undefined),inactive: -10.4%
2,Cc1cc(C)cc(OCC(=O)Nc2c(C)ccc3nsnc23)c1,inactive: -8.79%
3,CCCCN(C)CCCNC(=O)Cn1ncc2c3ccccc3n(Cc3ccccc3)c2c1=O,inactive: 5.47%
4,Cc1cccc(NC(=O)CSc2nccn2Cc2ccc(F)cc2)c1C,inactive: -0.708%
5,CCOc1ccc(N(CC)S(=O)(=O)c2cc(Br)cc3c2N(C(C)=O)C(C)C3)cc1 (centres undefined),inactive: -0.922%
6,COc1ccc(NC(=O)CSc2nc(-c3ccco3)cc(C(F)(F)F)n2)cc1OC,inactive: -21.2%
7,Cc1cccc(N2CCN(C(=O)Cn3nc(C)n4cccc4c3=O)CC2C)c1 (centres undefined),inactive: -13.6%
8,CN(Cc1ccccc1)S(=O)(=O)c1nnc(NC(=O)c2cccc(Cl)c2)s1,inactive: -18.6%
9,COc1ccccc1NC(=O)CSC1=Nc2ccccc2C2=NC(CC(=O)NCc3ccco3)C(=O)N12 (centres undefined),inactive: -11.5%
10,CCOc1ccccc1CN1CCN(S(=O)(=O)c2ccccc2)CC1,inactive: -2.09%
11,CCOC(=O)c1c(-c2ccccc2)oc2ccc(NS(=O)(=O)c3cc(C)c(C)cc3C)cc12,inactive: -13.2%
12,Cc1ccc(C(=O)Nc2cc3c(cc2C)n(C)c(=O)c(=O)n3C)cc1,inactive: -4.65%
13,O=C(CN1N=C(c2ccc(Cl)cc2)CCC1=O)NCCc1ccc(Cl)cc1,inactive: -6.96%
14,COCc1nc2ccccc2n1CCOc1cccc(C)c1,inactive: -9.34%
15,COc1ccc(S(=O)(=O)N2CCCN(CC(=O)Nc3ccc(NC(C)=O)cc3)CC2)cc1,inactive: -15.4%
16,CC(=O)c1cccc(NC(=O)c2oc3c(c2C)-c2nn(Cc4ccc(Cl)cc4)cc2CC3)c1,inactive: -26.7%
17,Cc1ccccc1NC(=O)c1ccc2c(c1)c(C)c(C)n2Cc1ccccc1,inactive: -8.79%
18,Cc1nc2c(C(=O)NCCCN(CC(C)C)CC(C)C)cnn2c(C)c1Cc1c(F)cccc1Cl,inactive: -21.2%
19,CCCOC(=O)c1c(NC(=O)c2nc3ncccn3n2)sc(C(N)=O)c1C,inactive: -16.6%
20,CCc1ccc(-n2nc(C)c3c(C)cc(=O)n(Cc4nc(-c5ccccc5)oc4C)c32)cc1,inactive: -3.32%
21,COc1ccc(OC)c(CNC(=O)c2ccc(Sc3ccc(C)cc3)c(N)c2)c1,inactive: -5.74%
22,Cc1ccc(NC(=O)CN2C(=O)CCc3cc(S(=O)(=O)N4CCOCC4)ccc32)cc1F,inactive: -5.8%
23,Cc1cccc(CNC(=O)CCn2c(=O)c3cccn3c3ccc(F)cc32)c1,inactive: -5.47%
24,Clc1ccc(Nc2nnc(Cc3ccncc3)c3ccccc23)cc1,inactive: -11.4%
25,CCCc1nn2c(=O)cc(COC(=O)c3ccccc3NC(=O)COc3ccccc3F)nc2s1,inactive: 2.08%

row,SMILES,activation
1,COc1ccc(NC(=O)c2oc3ccc(S(=O)(=O)N4CCCCC4)cc3c2C)cc1,inactive: -21.3%
2,CCOc1ccc(CNC(=O)C2Cc3ccccc3N2C(=O)CC)cc1OC (centres undefined),inactive: -4.4%
3,CCOC(=O)CSc1nc(-c2ccc(C)cc2C)cc(-c2ccccc2)c1C#N,inactive: -1.66%
4,Cc1ccc(C(=O)CSc2nc(-c3ccccc3)nc3c2CCCC3)cc1,inactive: -6.28%
5,CCOc1ccccc1NC(=O)N1CC(CC)Oc2ccccc21 (centres undefined),inactive: -11.4%
6,C#Cc1ccc(-c2ccccc2F)cc1,inactive: -17.9%
7,COc1cccc(CNCCNC(=O)c2nonc2N)c1,inactive: -10.8%
8,CCSc1nc2c([nH]c3ccccc32)c(=O)n1CC,inactive: -7.84%
9,O=C(NCc1ccccc1Cl)c1cc2c(s1)-c1ccc(Cl)cc1SC2,inactive: -10.1%
10,Cc1cccc(NS(=O)(=O)c2c(C)nc3sccn3c2=O)c1C,inactive: -14.8%
11,O=C(Cn1c(=O)nc(-c2ccccc2)c2ccccc21)Nc1cccc(C(F)(F)F)c1,inactive: -16.1%
12,Cc1c(C(=O)NCc2cccc(Cl)c2)sc2ncnc(N(C)C3CCCCC3)c12,inactive: -6.89%
13,CC(C)(C)C(=O)Nc1cccc(-c2cn3cccnc3n2)c1,inactive: -10%
14,CC(=O)N1CCc2c(sc(NC(=O)CSc3ccccc3)c2-c2nc3ccccc3s2)C1,inactive: -12.9%
15,COc1cccc(-n2c(=O)c3c(C)c(C)sc3n(CC(=O)NCc3ccc(C)cc3)c2=O)c1,inactive: -18.7%
16,Cc1cccc(CSc2ncc(Cl)c(C(=O)Nc3sc4c(c3C(N)=O)CCCC4)n2)c1,inactive: 4.03%
17,CCOc1ccc(CCNC(=O)c2cc3c(=O)oc4ccc(C)cc4c3s2)cc1OCC,inactive: -3.3%
18,COc1ccc(-c2cn(-c3ccc(C)cc3)c(S(=O)(=O)CC(=O)Nc3ccc(F)cc3)n2)cc1,inactive: -41.2%
19,COc1ccccc1NC(=O)c1cc(=O)c2ccc(C)c(C)c2o1,inactive: -11.1%
20,CCOC(=O)c1ccc2c(c1)N(CC(=O)N(C)c1ccccc1)C(=O)c1ccccc1S2,inactive: -30.8%
21,Cc1ccc(Cc2c(C)nc3nc(SCC(=O)NC4CCC(C)CC4)nn3c2C)cc1 (centres undefined),inactive: -3.89%
22,O=C(CC1N=C2c3ccccc3N=C(SCc3cccc(Cl)c3)N2C1=O)NCc1ccc2c(c1)OCO2 (centres undefined),inactive: -8.02%
23,CC1CCCCN1C(=O)CSc1n[nH]c(-c2ccccc2Cl)n1 (centres undefined),inactive: -9.4%
24,COc1cc(Nc2nc(SCC(=O)c3ccc(Br)cc3)nc3ccccc23)cc(OC)c1,inactive: -9.4%
25,N#C/C(=C\c1ccc(-c2ccc(C(=O)O)cc2)o1)C(=O)Nc1ccccc1C(=O)O,inactive: -8.43%

row,SMILES,activation
1,Cc1nn(CCC(=O)Nc2cc(F)ccc2F)c(=O)c2nn(-c3ccccc3)c(C)c12,inactive: -5.21%
2,CCOC(=O)[C@H](CCc1ccccc1)N[C@@H](C)C(=O)N1Cc2cc(OC)c(OC)cc2C[C@H]1C(=O)O,inactive: -16.6%
3,COc1cccc(NC(=O)CCNS(=O)(=O)c2ccc3c(c2)oc(=O)n3C)c1,inactive: -7.1%
4,O=C1CCCc2cc(S(=O)(=O)N3CCCC(C(=O)NCc4ccccc4)C3)ccc2N1 (centres undefined),inactive: -25.9%
5,CC(=O)c1cccc(NC(=O)c2nc(-c3ccccc3)n(-c3ccccc3)n2)c1,inactive: -21.4%
6,Cc1cc(C)c(NC(=O)CN(C)S(=O)(=O)c2ccc3c(c2)CCC(=O)N3)c(C)c1,inactive: -20.5%
7,O=C(Oc1cccc2cccnc12)c1ccccc1,inactive: -16.9%
8,COc1cc2c(cc1OC)n(Cc1cccc(C(F)(F)F)c1)c(=O)n1nc(-c3ccccc3)nc21,inactive: -4.82%
9,COc1cc2c(cc1OC)C(COc1cccc(C(F)(F)F)c1)N(C(=O)c1ccc(S(=O)(=O)N3CCCC3)cc1)CC2 (centres undefined),inactive: -18.2%
10,CCc1ccccc1NC(=O)C(=O)NCCCN1CCOCC1,inactive: 2.29%
11,CCC(C)NC(=O)C1CCN(S(=O)(=O)c2ccc3c(c2)CCCN3C(C)=O)CC1 (centres undefined),inactive: -13.7%
12,CCn1cc(C(=O)N2CCN(c3ccc(C)cc3)C(C)C2)c(=O)c2cc(S(=O)(=O)N3CCCC3)ccc21 (centres undefined),inactive: -17.2%
13,Cc1cc(C)c(NC(=O)CCS(=O)(=O)c2cc3c(cc2Cl)NC(=O)CO3)c(C)c1,inactive: -14.8%
14,CCOc1ccc(NS(=O)(=O)c2cc3c(cc2Cl)NC(=O)CO3)cc1,inactive: -16.9%
15,CCOc1ccc(N(C)S(=O)(=O)c2ccc3c(c2)CCCN3C(C)=O)cc1,inactive: -10.2%
16,CC(=O)Nc1ccc(NC(=O)CCCn2nc(C)c3sc4ccccc4c3c2=O)cc1,inactive: -21.2%
17,O=C(CSCn1nnc2c(=O)[nH]c(Cc3ccc(F)cc3)nc21)Nc1cccc(C(F)(F)F)c1,inactive: -12.9%
18,CN1CCC(OC(c2ccccc2)c2ccccc2)CC1,inactive: -17.1%
19,CCOc1ccc(NC(=O)c2ccc3[nH]c(C)c(C)c3c2)cc1,inactive: -1.15%
20,Cc1ccc(S(=O)(=O)Nc2cccc(-c3cn4cccc(C)c4n3)c2)c(C)c1,inactive: -6.15%
21,O=C(Cn1c(=O)c2cccn2c2cccnc21)NCc1cccc(F)c1,inactive: -6.7%
22,O=C(Cn1c(SCc2ccccc2F)nc2ccncc21)Nc1ccccc1C(F)(F)F,inactive: -9.45%
23,CNC(=O)CCCN1C(=O)c2cccnc2Sc2ccccc21,inactive: -14.3%
24,CCOc1cc(C(=O)NCCc2sc(-c3ccc(F)cc3)nc2C)cc(OCC)c1OCC,inactive: -20.1%
25,Cc1nc2n(c(=O)c1CCN1CCC(C(=O)c3ccc(F)cc3)CC1)CCS2,inactive: -8.53%

row,SMILES,activation
1,Cc1nc2ccc(S(=O)(=O)N(CC(=O)Nc3ccc(F)cc3F)Cc3ccccc3)cc2s1,inactive: -6.07%
2,CCCCC(=O)OC1=C(C(=O)c2ccccc2)N(CCC)S(=O)(=O)c2ccccc21,inactive: -39.9%
3,Cc1ccsc1CN1CCc2nc(Nc3ccccc3)ncc2C1,inactive: 5.35%
4,CC(NC(=O)CSc1n[nH]c(-c2ccccc2Cl)n1)c1nc2ccccc2[nH]1 (centres undefined),inactive: -14.4%
5,CN(C)C(=O)Oc1cccc([N+](C)(C)C)c1,inactive: -6.95%
6,CCCCN(C)C(=O)c1cn(C)c2ccc(S(=O)(=O)N3CCC(C)CC3)cc2c1=O,inactive: -20.5%
7,Cc1ccccc1NC(=O)Cn1cc(C(=O)c2cccs2)c2ccccc21,inactive: -7.26%
8,O=C(Cn1ccc2cc(S(=O)(=O)N3CCCCC3)ccc21)NCCc1ccccc1Cl,inactive: 2.63%
9,COc1ccccc1NC(=O)Cn1c(=O)n(Cc2ccccc2)c(=O)c2c1c1cc(C)ccc1n2C,inactive: -8.01%
10,O=c1[nH]cnc2[nH]ncc12,inactive: -12.2%
11,CCNc1nc(NCc2ccc(F)cc2)c2cnn(C)c2n1,inactive: -6.43%
12,O=C(c1cnn(-c2ccc(F)cc2)c1-n1cccc1)N1CCN(c2ccc(F)cc2)CC1,inactive: -36.9%
13,CC1CCN(S(=O)(=O)c2ccc3c(c2)CCN3)CC1,inactive: 3.52%
14,CC1=C(C(=O)Nc2cccc(Cl)c2C)C2(CCCCCC2)OC1=O,inactive: -3.19%
15,COc1ccc(CC(=O)Nc2sc3c(c2C(=O)Nc2ccccc2)CCCCC3)cc1,inactive: -20.1%
16,O=S(=O)(NCCS(=O)(=O)N1CCN(c2ccccc2)CC1)c1ccc(Br)cc1,inactive: -4.96%
17,CCc1ccc(S(=O)(=O)c2nnn3c2nc(Nc2cc(OC)ccc2OC)c2sccc23)cc1,inactive: -0.529%
18,COc1ccccc1Nc1sc(C(=O)c2ccc(C)cc2C)c(N)c1S(=O)(=O)c1ccccc1,inactive: -18%
19,Cc1ccc2oc(C(=O)Nc3cccc(Cl)c3)cc(=O)c2c1,inactive: -2.27%
20,O=C(Cc1ccccc1)Nc1sc2c(c1C(=O)Nc1ccc(Br)cc1)CCC2,inactive: -11.7%
21,COc1ccccc1C(=O)Nc1ccccc1OCc1cc(=O)n2ccccc2n1,inactive: -16.5%
22,Cc1c(C(=O)Nc2nc(-c3ccc(F)cc3)ns2)oc2ccc(Cl)cc12,inactive: -21.1%
23,Cc1ccc(CCNC(=O)CS(=O)Cc2nc(-c3ccccc3Cl)oc2C)cc1 (centres undefined),inactive: -17%
24,COc1ccc(CNc2nc3c(-c4ccccc4)nnn3c3ccccc23)cc1,inactive: -13.5%
